# Results as given in PubChem BioAssay AID1508623 (National Center for Advancing Translational Sciences (NCATS), 2021).
# The whole screen tested about 48,000 compounds, of which about 450 (0.94%) were called active. About 19% were inconclusive and are not listed. Calls come from the whole dose curve; as a rule, active = well fitted inhibition curve with a large enough effect; inconclusive = small, poorly fitted or top-dose-only effect; inactive = no such curve, though single readings can be large or run the other way. This is one part of the list.
# Assay: Primary qHTS for Identification of Small Molecule Inhibitors of Huntingtin Promoter Activity; note: nearly all actives have a fitted effect of over 50% in size
# Settings: HEK293 HTT promoter firefly luciferase reporter (activity 0% = vehicle and -100% = no light), 24 h; series mostly up to 57.5 µM; activity change, negative = inhibition: at the top concentration
# Outline: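 Quantitative HTS used concentration series of up to 57.5 uM final on HEK293 luciferase reporter cells, 24 h at 37 degrees C. Readout was Dual-Glo firefly luminescence.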
row,SMILES,"activity change, negative = inhibition"
1,COc1ccc(C(=O)Nc2cc3cc(Cl)ccc3oc2=O)cc1OC,inactive: 12.3%
2,CCN(CC)C(=O)c1sc2c(c1C)c(=O)n(-c1ccc(OC)cc1OC)c(=O)n2Cc1cc(C)ccc1C,inactive: 0%
3,COc1cccc(-c2nn(C)c3sc(C(=O)NCc4ccc(C)cc4)cc23)c1,inactive: -22.9%
4,CC(C)(O)CC(=O)NCCn1ccc2ncnc(Nc3ccc(Oc4cccc(C(F)(F)F)c4)c(Cl)c3)c21,inactive: -17.5%
5,CC(=O)Nc1ccccc1OCc1cc(=O)n2c(C)csc2n1,inactive: -1.04%
6,Cc1ccc(-c2nc(C)c(CCNC(=O)C(=O)Nc3ccc(C)c(Cl)c3)s2)cc1,inactive: 7.87%
7,CCC1(C)CC(=O)NC1=O (stereo unspecified),inactive
8,CCN(CCCNC(=O)CSc1cc(=O)n(C)c2cc(Cl)ccc12)c1ccccc1,inactive: -20.3%
9,Cc1cc(=O)n2nc(N3CCC(C(=O)NCc4ccccc4F)CC3)sc2n1,inactive: -12.1%
10,CN1CCN(CCNC(=O)c2cnn(-c3cccc(Cl)c3)c2C2CCN(C(=O)OC(C)(C)C)CC2)CC1,inactive: -9.48%
11,COc1ccc2nc(SCc3ncc(C)c(OC)c3C)[nH]c2c1,inactive: 15.4%
12,Cc1ccc(NC(=O)CSc2ncc3c(n2)-c2ccccc2N(C)S3(=O)=O)c(Cl)c1,inactive: -28.6%
13,CCC(CC)C(=O)Nc1cccc(-c2nc3ncccn3c2C)c1,inactive: -0.495%
14,CCc1ccc(CNC(=O)Cn2nc(C)c3c(C)n(-c4ccc(C)cc4)nc3c2=O)cc1,inactive: -5.54%
15,COCCN(Cc1ccco1)C(=O)c1cc2c(Cl)nc3ccc(C)cc3c2s1,inactive: 0.513%
16,CCN(CC)CCCNC(=O)CSc1nc2nc(C)c(Cc3ccccc3C)c(C)n2n1,inactive: -7.75%
17,COc1ccc(NC(=O)Cn2nc(SC)c(S(=O)(=O)c3ccc(C)cc3)c2N)cc1OC,inactive: -21.5%
18,COc1ccc(-n2nc(C(=O)NCCCOC(C)C)c3c4ccccc4n(C)c3c2=O)cc1,inactive: -11.2%
19,O=C(O)c1ccc2oc(=O)n(Cc3ccccc3)c2c1,inactive: 8.02%
20,O=C(Nc1c(Cl)cccc1Cl)c1cccc2c1C(=O)N(C1CCCCC1)C2,inactive: -2.47%
21,CCC(=O)N1CCc2cc(Br)cc(S(=O)(=O)CCC(=O)N(C)c3cccc(C)c3)c21,inactive: -2.18%
22,COc1ccc(CNc2nc3c(-c4ccc(C)cc4)nnn3c3ccccc23)cc1,inactive: 30.8%
23,CCOC(=O)c1cc2c(=O)n3ccccc3nc2n(CCCOC)c1=NC(=O)c1c(-c2ccccc2Cl)noc1C,inactive: -25.6%
24,Cc1nc2nc(C)c(NS(=O)(=O)c3ccc(F)cc3)c(=O)n2[nH]1,inactive: -3.58%

row,SMILES,"activity change, negative = inhibition"
1,O=C(Cn1cnc(S(=O)(=O)N2CCCC2)c1)Nc1cccc(F)c1,inactive: -20.6%
2,CN(C(=O)Cn1c(=O)n(CCC(=O)NCc2ccc3c(c2)OCO3)c(=O)c2sccc21)c1ccccc1,inactive: -6.33%
3,Cc1ccc(-n2ncc(C(=O)N3CCN(C4CCCCC4)CC3)c2C2CCN(C(=O)OC(C)(C)C)CC2)cc1C,inactive: -4.46%
4,Cc1ccc(NC(=O)c2sc3nc4n(c(=O)c3c2C)CCCCC4)c(Br)c1,inactive: 1.84%
5,Cc1cccc(N2CCN(C(=O)CCCn3c(=O)[nH]c4ccsc4c3=O)CC2)c1C,inactive: -10.6%
6,CCCCCCc1c(C)c2c(cc(C)c3c(C)c(C)oc32)oc1=O,inactive: -22.7%
7,O=C1CC(c2nc3ccccc3n2CCC2CCCCC2)CN1c1ccccc1Cl (stereo unspecified),inactive: -20.2%
8,Oc1c(C(c2ccccc2F)N2CCC3(CC2)OCCO3)sc2nc(-c3ccco3)nn12 (stereo unspecified),inactive: 1.99%
9,CCCCN(C(=O)Nc1ccc(Cl)cc1)C1CCN(C(C)=O)CC1,inactive: 12.8%
10,O=C(NC1CCCCC1)c1ccc(CSc2nc3ccncc3n2Cc2ccccc2)cc1,inactive: -21.4%
11,Cc1ccc2onc(CC(=O)N3CCN(c4ccc(Cl)cc4)CC3)c2c1,inactive: -17.7%
12,O=C(NCCc1ccccc1)c1ccc(Cn2c(=O)c3cccn3c3cccnc32)cc1,inactive: -9.3%
13,COc1ccc(OC)c(CNC(=O)c2ccc(Sc3ccc(Cl)cc3)c(NC(C)=O)c2)c1,inactive: -28.2%
14,Cc1ccc(NC(=O)Cn2c(=O)n(CCCC(=O)NCc3ccc4c(c3)OCO4)c(=O)c3ccccc32)cc1,inactive: -8.79%
15,CCOc1cc(C2C(C(=O)Nc3ccccc3)=C(C)Nc3ncnn32)cc(Br)c1O (stereo unspecified),inactive: -6.22%
16,Cc1cc2c(cc1S(=O)(=O)N(CCO)Cc1ccccc1)OCC(=O)N2,inactive: 8.29%
17,O=C(NC(Cc1cc(=O)[nH]c2ccccc12)C(=O)O)c1ccc(Cl)cc1 (stereo unspecified),inactive
18,CCc1cccc(CC)c1N(COC)C(=O)Cn1c(CC)nc2ccccc21,inactive: 18.5%
19,Cc1ccc(C)c(NC(=O)CCS(=O)(=O)c2cccc3nsnc23)c1,inactive: -15.5%
20,Cc1ccc(NC(=O)Cn2c(CCC(=O)O)ccc2-c2cccs2)cc1Cl,inactive: -20.6%
21,COC(=O)c1cccc(NC(=O)N(C)CCc2c(C)nn(C)c2C)c1,inactive: 0%
22,C[N+](C)(C)CCOC(N)=O,inactive: 1.81%
23,CCCCn1cc(S(=O)(=O)c2ccc(OCC)cc2)c(=O)c2cc(OC)c(OC)cc21,inactive: -21.6%
24,CCc1ccc(-n2nc3ccc(NC(=O)c4cc(Cl)c(OC)c(Cl)c4)cc3n2)cc1,inactive: 2.8%

row,SMILES,"activity change, negative = inhibition"
1,CCOc1ccc(CNC(=O)Cn2nc(C)n3cccc3c2=O)cc1,inactive: 8.55%
2,Cc1ccc(CNC(=O)Cn2c(=O)n(Cc3ccccc3)c(=O)c3c2c2cc(C)ccc2n3C)cc1,inactive: -9%
3,CCOc1ccc(N2CC(C)Cn3c2nc2c3c(=O)n(CC(=O)O)c(=O)n2C)cc1 (stereo unspecified),inactive: 2.81%
4,COc1cc(N2C(=O)CSC23C(=O)N(C)c2ccccc23)cc(OC)c1OC (stereo unspecified),inactive: -5.42%
5,COCCN1Cc2cccc(C(=O)Nc3ccc(C)c(F)c3)c2C1=O,inactive: -24.6%
6,Cc1cc(C)cc(NC(=O)C(=O)NCC(c2ccc3c(c2)OCO3)N2CCOCC2)c1 (stereo unspecified),inactive: -2.08%
7,COc1ccc(Nc2nc3c(S(=O)(=O)c4ccccc4)nnn3c3ccc(Cl)cc23)c(OC)c1,inactive: -3.94%
8,Fc1ccc(-c2cc(-c3nc(-c4ccccc4)no3)[nH]n2)cc1,inactive: 26.6%
9,CC(C)c1ccc(NC(=O)c2cn(C3CCCCC3)c(=O)c3c2c2ccccc2n3C)cc1,inactive: -6.5%
10,CC(C)(C)NC[C@H](O)COc1cccc2c1CCCC2=O,inactive: -4.44%
11,Cc1ccccc1NC(=O)N1CCc2cc(S(=O)(=O)N3CCC(C)CC3)ccc21,inactive: -10.8%
12,Cc1ccccc1CNC(=O)c1cccc(NC(=O)c2nsc3ccccc23)c1,inactive: 2.89%
13,COc1ccc(-c2nc(C)c(CCNC(=O)c3ccc(F)c(F)c3)s2)cc1,inactive: -16.7%
14,COc1ccccc1C1=NS(=O)(=O)N(C)C(C(=O)Nc2cc(OC)c(OC)c(OC)c2)=C1,inactive: 2.06%
15,CC(C)Cn1cc(NC(=O)NCc2ccccc2)c2ccccc2c1=O,inactive: -9.81%
16,Cc1ccc2c(c1)c1c(c(=O)n(-c3cccc(Cl)c3)c(=O)n1CC(=O)c1ccc(Cl)cc1)n2C,inactive: -4.25%
17,CCCCn1c(=N)c(S(=O)(=O)c2ccccc2)cc2c(=O)n3cccc(C)c3nc21,inactive: -1.44%
18,Cc1c(CC(=O)N2CCCCC2)c(=O)oc2cc3occ(C(C)(C)C)c3cc12,inactive: -4.14%
19,COc1ccc(-c2cn3cccnc3n2)cc1NC(=O)COc1ccccc1,inactive: -1.07%
20,COCCNc1ncnc2c1cnn2-c1cc(Cl)ccc1C,inactive: -21.3%
21,Cc1cc(C)c2c(n1)SCC(=O)N2CC(=O)Nc1ccc(C)c(C)c1,inactive: -23%
22,CN1CCN(C(c2ccc(Cl)cc2Cl)c2sc3nc(-c4ccco4)nn3c2O)CC1 (stereo unspecified),inactive: -8.85%
23,Cn1nc(C(=O)NCc2cccc(Cl)c2)c2c1-c1ccccc1SC2,inactive: -9.72%
24,CCC(=O)N1c2ccccc2CC1C(=O)NCCc1ccccc1Cl (stereo unspecified),inactive: -11.4%

row,SMILES,"activity change, negative = inhibition"
1,Cc1ccc(S(=O)(=O)C2(C(=O)Nc3ccc(C)c(Cl)c3)CC2)cc1,inactive: -0.484%
2,Cc1ccc(OCC(=O)Nc2ccc(OCc3cc(=O)n4ccsc4n3)cc2)cc1,inactive: -4.95%
3,Cc1ccc(CNC(=O)CCS(=O)(=O)c2cc3c(cc2Cl)NC(=O)CO3)cc1,inactive: -1.56%
4,COc1ccc(N2CCN(CC(O)COc3ccc(C)cc3C)CC2)cc1 (stereo unspecified),inactive: -20.1%
5,CC(C)(C)C(=O)NC1(C(F)(F)F)NC(=O)N(c2ccc(F)cc2)C1=O (stereo unspecified),inactive: -16.1%
6,COc1ccc(N2CCN(c3ncnc4c3cnn4-c3ccc(C)c(Cl)c3)CC2)cc1,inactive: -9.46%
7,Cc1ccc(Cl)cc1N1CCN(C(=O)CN2C(=O)COc3ccc(S(=O)(=O)N4CCC(C)CC4)cc32)CC1,inactive: -12.9%
8,COc1ccc(CNC(=O)c2ccc(-c3nc(CSc4ccc(C)cc4)c(C)o3)cc2)cc1OC,inactive: -25.5%
9,Cc1nn(C(=O)c2ccccc2)c(C)c1S(=O)(=O)N1CCOCC1,inactive: -7.97%
10,CCC(=O)N1CCc2cc(S(=O)(=O)NC(C(=O)NCc3ccccc3Cl)C(C)C)ccc21 (stereo unspecified),inactive: -5.71%
11,Cc1c(C(=O)NCc2ccccc2Cl)sc2nc(-c3ccc(F)cc3)cn12,inactive: -22.6%
12,CCOc1ccccc1CNS(=O)(=O)c1ccc2c(c1)C(C)(C)C(=O)N2C,inactive: -29.7%
13,CNc1nc(Nc2ccc(C(=O)N3CCOCC3)cc2OC)ncc1Cl,inactive: -4.45%
14,Cn1c(=O)oc2cc(S(=O)(=O)N3CCC(C(=O)NCc4ccc(F)cc4)CC3)ccc21,inactive: -14.1%
15,COc1ccc(Nc2nc3cc(Cl)c(Cl)cc3n3cnnc23)cc1Cl,inactive: -1.26%
16,CCOC(=O)C1=C(C)NC(C)=C(C(=O)OC)C1c1cccc(Cl)c1Cl (stereo unspecified),inactive: -9.57%
17,O=C(Nc1nnc(S(=O)(=O)N2CCCC2)s1)c1ccccc1Br,inactive: -16.5%
18,Cc1ccccc1Cn1nnc2c(=O)[nH]c(C3CCCN(C(=O)c4ccc(F)cc4)C3)nc21 (stereo unspecified),inactive: -16.7%
19,CCOC(=O)c1ccc(NC(=O)CSc2nnc(CNC(=O)c3ccc(OC)cc3)n2CC)cc1,inactive: -3.71%
20,COc1ccc(NC(=O)CC2C(=O)N(c3ccc(C)cc3)C(=O)N2Cc2ccc3c(c2)OCO3)cc1 (stereo unspecified),inactive: -16.2%
21,COc1ccc(N2CCN(S(=O)(=O)c3ccc4c(c3)CCCN4C(C)=O)CC2)cc1,inactive: -16.8%
22,CC1CCN(CCCNC(=O)c2cn(C)c3ccc(S(=O)(=O)N(C)C4CCCCC4)cc3c2=O)CC1,inactive: -4.01% [at 11.5 µM]
23,COc1cc2c(cc1OC)C(COc1ccc(C(C)C)cc1)N(C(=O)c1ccc(S(=O)(=O)N3CCCC3)cc1)CC2 (stereo unspecified),inactive: -61.1%
24,Cc1ccc2c(c1)N(C(=O)CCC(=O)NCc1cccs1)CCO2,inactive: -18.1%
